Source: patent US5773413A, “Method of combating mammalian neoplasias, and lytic peptides therefor” (Demeter Biotechnologies, Ltd., priority 1995, dated 1998)
At least one peptide structure holds a part that was inferred or is arguable (an end, a ring closure or a residue). Where a SMILES comes first, the peptide text is derived from it. [ ]: non-standard residue; d: D form. The star is where a group is joined. NMe2Phe = CN(C)[C@@H](Cc1ccccc1)C(=O)*; Lys(Me2) = CN(C)CCCC[C@H](N)C(=O)O

What was measured:
B16F1 mouse melanoma = test: MTT ID50 assay; format: cell-based; conditions: quadruplicate; values listed as 10 are actually greater than 10
[1] = test system: T47D hormone sensitive breast tumor; test: MTT ID50 assay; format: cell-based, human; conditions: quadruplicate; values listed as 10 are actually greater than 10
[2] = test system: MDA-MB231 hormone insensitive breast tumor; test: MTT ID50 assay; format: cell-based, human; conditions: quadruplicate; values listed as 10 are actually greater than 10
[3] = test system: KBATCC nasopharyngeal carcinoma; test: MTT ID50 assay; format: cell-based, human; conditions: quadruplicate; values listed as 10 are actually greater than 10
[4] = test system: MG-63, T47D, MDA231, BT474, B16F1, KBATCC; test: MTT ID50 assay, average over the six cell lines; format: cell-based; conditions: average of the six cell lines, values greater than 10 counted as 10.00
Mammalian Melanoma = test: Standard MTT assay, Example 12, Mammalian Melanoma; format: cell-based, murine
[5] = test system: MG-63 chemotherapy resistant osteosarcoma; test: MTT ID50 assay; format: cell-based, human; conditions: quadruplicate; values listed as 10 are actually greater than 10
[6] = test system: BT474 hormone sensitive breast tumor; test: MTT ID50 assay; format: cell-based, human; conditions: quadruplicate; values listed as 10 are actually greater than 10
Mouse melanoma cells = test: Mouse melanoma survival study; format: in vivo; conditions: 25 μg intraperitoneal every other day for one week, four injections

Compound	MTT ID50 B16F1 (B16F1 mouse melanoma)	MTT ID50 T47D [1]	MTT ID50 MDA231 [2]	MTT ID50 KBATCC [3]	MTT ID50 Average [4]	Average MTT ID50 Values (Mammalian Melanoma)	MTT ID50 MG-63 [5]	MTT ID50 BT474 [6]	death of all animals after (Mouse melanoma cells)
CC[C@H](C)[C@H](NC(=O)[C@H](C)NC(=O)[C@H](CCCNC(=N)N)NC(=O)[C@H](CC(C)C)NC(=O)CNC(=O)[C@@H](NC(=O)[C@H](C)NC(=O)[C@@H](N)Cc1ccccc1)C(C)C)C(=O)N[C@@H](CCCCN)C(=O)N[C@@H](CCCNC(=N)N)C(=O)N[C@@H](C)C(=O)N[C@@H](CC(C)C)C(=O)N[C@@H](CCCCN)C(=O)N[C@@H](CCCCN)C(=O)N[C@@H](CC(C)C)C(=O)N[C@@H](CCCNC(=N)N)C(=O)N[C@@H](CCCNC(=N)N)C(=O)NCC(=O)N[C@H](C(=O)N[C@@H](CCCNC(=N)N)C(=O)N[C@@H](CCCCN)C(=O)N[C@H](C(=O)N[C@@H](C)C(=O)N[C@@H](CCCCN)C(=O)N[C@@H](CC(=O)O)C(=O)N[C@@H](CC(C)C)C(=O)O)C(C)C)C(C)C [Peptide 16] (H-FAVGLRAIKRALKKLRRGVRKVAKDL-OH)	5.10 µM	2.00 µM	4.20 µM	5.10 µM	4.75 µM	4.75 µM	5.90 µM	6.20 µM	
CC(C)C[C@H](NC(=O)[C@H](C)NC(=O)[C@H](CCCCN)NC(=O)[C@H](CCCCN)NC(=O)[C@H](CC(C)C)NC(=O)[C@H](C)NC(=O)[C@H](CCCCN)NC(=O)[C@H](CCCCN)NC(=O)[C@H](CC(C)C)NC(=O)[C@H](CCCCN)NC(=O)[C@H](CCCCN)NC(=O)[C@H](CC(C)C)NC(=O)[C@H](C)NC(=O)[C@H](CCCCN)NC(=O)[C@H](CCCCN)NC(=O)[C@H](CC(C)C)NC(=O)[C@H](C)NC(=O)[C@H](CCCCN)NC(=O)[C@H](CC(C)C)NC(=O)[C@H](C)NC(=O)[C@H](CC(C)C)NC(=O)[C@H](C)NC(=O)[C@@H](N)Cc1ccccc1)C(=O)O [Peptide 19] (H-FALALKALKKALKKLKKALKKAL-OH)	5.90 µM	4.80 µM	5.90 µM	5.40 µM	5.57 µM	5.57 µM	5.60 µM	5.80 µM	
CC[C@H](C)[C@H](NC(=O)[C@H](CCCCN)NC(=O)[C@H](CCCNC(=N)N)NC(=O)[C@H](C)NC(=O)[C@H](CC(C)C)NC(=O)[C@H](CCCCN)NC(=O)[C@H](CCCCN)NC(=O)[C@H](CC(C)C)NC(=O)[C@H](CCCNC(=N)N)NC(=O)[C@H](CCCNC(=N)N)NC(=O)CNC(=O)[C@@H](NC(=O)[C@H](CCCNC(=N)N)NC(=O)[C@H](CCCCN)NC(=O)[C@@H](NC(=O)[C@H](C)NC(=O)[C@H](CCCNC(=N)N)NC(=O)[C@H](CCCCN)NC(=O)[C@H](CCCNC(=N)N)NC(=O)[C@@H](N)CCCCN)C(C)C)C(C)C)C(=O)N[C@@H](C)C(=O)N[C@@H](CCCNC(=N)N)C(=O)N[C@@H](CC(C)C)C(=O)NCC(=O)N[C@H](C(=O)N[C@@H](C)C(=O)N[C@@H](Cc1ccccc1)C(=O)O)C(C)C [Peptide 13] (H-KRKRAVKRVGRRLKKLARKIARLGVAF-OH)	2.20 µM	1.40 µM	> 10.00 µM	5.60 µM	5.32 µM	5.32 µM	5.90 µM	6.80 µM	
CC(C)C[C@H](NC(=O)[C@H](C)NC(=O)[C@H](CCCCN(C)C)NC(=O)[C@H](CCCCN(C)C)NC(=O)[C@H](CC(C)C)NC(=O)[C@H](C)NC(=O)[C@H](CCCCN(C)C)NC(=O)[C@H](CCCCN(C)C)NC(=O)[C@H](CC(C)C)NC(=O)[C@H](CCCCN(C)C)NC(=O)[C@H](CCCCN(C)C)NC(=O)[C@H](CC(C)C)NC(=O)[C@H](C)NC(=O)[C@H](CCCCN(C)C)NC(=O)[C@H](CCCCN(C)C)NC(=O)[C@H](CC(C)C)NC(=O)[C@H](C)NC(=O)[C@H](CCCCN(C)C)NC(=O)[C@H](CC(C)C)NC(=O)[C@H](C)NC(=O)[C@H](CC(C)C)NC(=O)[C@H](C)NC(=O)[C@H](Cc1ccccc1)N(C)C)C(=O)O [Peptide 20] (NMe2Phe-ALAL[Lys(Me2)]AL[Lys(Me2)][Lys(Me2)]AL[Lys(Me2)][Lys(Me2)]L[Lys(Me2)][Lys(Me2)]AL[Lys(Me2)][Lys(Me2)]AL-OH)	6.40 µM	3.40 µM	6.40 µM	5.70 µM	5.43 µM	5.43 µM	4.90 µM	5.80 µM	
CC(C)C[C@H](NC(=O)[C@H](C)NC(=O)[C@H](CC(C)C)NC(=O)[C@H](CCCCN)NC(=O)[C@H](C)NC(=O)[C@H](CC(C)C)NC(=O)[C@H](CCCCN)NC(=O)[C@H](CCCCN)NC(=O)[C@H](C)NC(=O)[C@H](CC(C)C)NC(=O)[C@H](CCCCN)NC(=O)[C@H](CCCCN)NC(=O)[C@H](CC(C)C)NC(=O)[C@H](CCCCN)NC(=O)[C@H](CCCCN)NC(=O)[C@H](C)NC(=O)[C@H](CC(C)C)NC(=O)[C@H](CCCCN)NC(=O)[C@H](CCCCN)NC(=O)[C@H](C)NC(=O)[C@@H](N)CC(C)C)C(=O)N[C@@H](C)C(=O)N[C@@H](Cc1ccccc1)C(=O)O [DP-2] (H-LAKKLAKKLKKLAKKLAKLALAF-OH)									33 days
